Among the test systems are 501Mel; A101D; A2058; A375.
Holding throughout (experiment): cell count relative to DMSO control; melanoma cells; higher = more viable cells
Holding throughout (settings): library dose: standard library concentration; 72 h

This is one part of the list. Many values rest on one well or one pass, so single values are uncertain.
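Further: cells treated in 1,536-well plates, then fixed and DAPI-stained, with nuclei counted from automated high-throughput microscope images.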

Take `CO[C@H]1C[C@@H]2CC[C@@H](C)[C@@](O)(O2)C(=O)C(=O)N2CCCC[C@H]2C(=O)O[C@H]([C@H](C)C[C@@H]2CC[C@@H](OCCO)[C@H](OC)C2)CC(=O)[C@H](C)/C=C(\C)[C@@H](O)[C@@H](OC)C(=O)[C@H](C)C[C@H](C)/C=C/C=C/C=C/1C` [everolimus] + COC(=O)c1sccc1S(=O)(=O)Nc1ccc(Nc2ccccc2)cc1OC [GSK0660] (first compound 0.1 µM, partner dose 5 µM): the cell count is 55.2% in the assay with 501Mel, 79% in the assay on A101D, 53.3% with A2058 and 113% with A375.
In the case of `Nc1ccn([C@@H]2O[C@H](CO)[C@@H](O)C2(F)F)c(=O)n1` [gemcitabine] + C#Cc1cccc(Nc2ncnc3cc(OCCOC)c(OCCOC)cc23)c1 [erlotinib] (first compound 0.002 µM, partner dose 4 µM), the cell count turned out to be 54.8% with A101D, 58.2% in the assay on A2058 and 98.3% with A375.
On the same counts, the results for `Nc1nc(F)nc2c1ncn2[C@@H]1O[C@H](CO)[C@@H](O)[C@@H]1O` [fludarabine] + COc1cc2c(Oc3ccc4[nH]c(C)cc4c3F)ncnc2cc1OCCCN1CCCC1 [cediranib] (first compound 1 µM, partner dose 2 µM) are 88.4%, 81.1% and 30.3%.
`CC(=O)c1c(C)c2cnc(Nc3ccc(N4CCNCC4)cn3)nc2n(C2CCCC2)c1=O` [palbociclib] + O=C1NC(=O)/C(=C/c2ccc(-c3ccc(F)cc3O)o2)S1 [AS252424] (first compound 0.2 µM, partner dose 5 µM): the cell count came out at 47.1% in the assay on 501Mel, 69.8% in the assay with A101D, 104% in the assay with A2058 and 59% in the assay on A375.
Consider `CO[C@H]1C[C@@H]2CC[C@@H](C)[C@@](O)(O2)C(=O)C(=O)N2CCCC[C@H]2C(=O)O[C@H]([C@H](C)C[C@@H]2CC[C@@H](OCCO)[C@H](OC)C2)CC(=O)[C@H](C)/C=C(\C)[C@@H](O)[C@@H](OC)C(=O)[C@H](C)C[C@H](C)/C=C/C=C/C=C/1C` [everolimus] + O=C(O)c1ccc2c(c1)nc(Nc1cccc(Cl)c1)c1ccncc12 [CX4945] (first compound 0.1 µM, partner dose 2 µM), for which the figures for the cell count with A101D, in the assay on A2058 and in the assay on A375 were 90.4%, 70.3% and 75.4%, respectively.
Turning to `Nc1ncn([C@H]2C[C@H](O)[C@@H](CO)O2)c(=O)n1` [decitabine] + COc1cc2ncnc(Nc3ccc(Oc4ccccc4)cc3)c2cc1OC [SrcI1] (first compound 0.5 µM, partner dose 10 µM), the cell count in the assay on 501Mel turned out to be 83.9%; with A101D it was 68.4%; in the assay with A2058, 94.9%; in the assay with A375 it was 158%.
On the same counts, the results for `CO[C@H]1C[C@@H]2CC[C@@H](C)[C@@](O)(O2)C(=O)C(=O)N2CCCC[C@H]2C(=O)O[C@H]([C@H](C)C[C@@H]2CC[C@@H](OCCO)[C@H](OC)C2)CC(=O)[C@H](C)/C=C(\C)[C@@H](O)[C@@H](OC)C(=O)[C@H](C)C[C@H](C)/C=C/C=C/C=C/1C` [everolimus] + COc1cc2ncnc(Nc3ccc(Oc4ccccc4)cc3)c2cc1OC [SrcI1] (first compound 0.1 µM, partner dose 10 µM) are 71.5%, 62.9%, 61.2% and 108%.
For the molecule `CC(=O)O[C@@]12CO[C@@H]1C[C@H](O)[C@@]1(C)C(=O)[C@H](O)C3=C(C)[C@@H](OC(=O)[C@H](O)[C@@H](NC(=O)OC(C)(C)C)c4ccccc4)C[C@@](O)([C@@H](OC(=O)c4ccccc4)[C@H]21)C3(C)C` [Docetaxel] + Oc1nc(-c2ccc(C(F)(F)F)cc2)nc2c1CSCC2 [XAV939] (first compound 0.0005 µM, partner dose 10 µM), the cell count was 46.6% in the assay on 501Mel, 40.5% in the assay on A101D, 5.4% in the assay with A2058 and 71.9% with A375.
In the case of `Nc1ccn([C@@H]2O[C@H](CO)[C@@H](O)C2(F)F)c(=O)n1` [gemcitabine] + C[C@@H]1CCN(C(=O)CC#N)C[C@@H]1N(C)c1ncnc2[nH]ccc12 [CP690550] (first compound 0.002 µM, partner dose 5 µM), the cell count was 81.8% in the assay on A101D, 75.3% in the assay on A2058 and 78.7% in the assay on A375.
On the same counts, the results for `CC(=O)c1c(C)c2cnc(Nc3ccc(N4CCNCC4)cn3)nc2n(C2CCCC2)c1=O` [palbociclib] + Cn1nnc2c(C(N)=O)ncn2c1=O [temozolomide] (first compound 0.2 µM, partner dose 10 µM) are 69.3%, 52% and 76.9%.
`CC(=O)c1c(C)c2cnc(Nc3ccc(N4CCNCC4)cn3)nc2n(C2CCCC2)c1=O` [palbociclib] + CCc1ccc(CCOc2ccc(CC3SC(=O)NC3=O)cc2)nc1 [pioglitazone] (first compound 0.2 µM, partner dose 10 µM): the cell count amounted to 56.4% in the assay with 501Mel, 67.7% in the assay with A101D, 103% in the assay with A2058 and 66.9% with A375.
On to `CO[C@H]1C[C@@H]2CC[C@@H](C)[C@@](O)(O2)C(=O)C(=O)N2CCCC[C@H]2C(=O)O[C@H]([C@H](C)C[C@@H]2CC[C@@H](OCCO)[C@H](OC)C2)CC(=O)[C@H](C)/C=C(\C)[C@@H](O)[C@@H](OC)C(=O)[C@H](C)C[C@H](C)/C=C/C=C/C=C/1C` [everolimus] + Clc1ccc(Nc2nnc(Cc3ccncc3)c3ccccc23)cc1 [vatalanib] (first compound 0.1 µM, partner dose 10 µM), for which the cell count in the assay with A101D came out at 63.3%; in the assay on A2058, 57.2%; with A375 it was 86.9%.
On to `CO[C@H]1C[C@@H]2CC[C@@H](C)[C@@](O)(O2)C(=O)C(=O)N2CCCC[C@H]2C(=O)O[C@H]([C@H](C)C[C@@H]2CC[C@@H](OCCO)[C@H](OC)C2)CC(=O)[C@H](C)/C=C(\C)[C@@H](O)[C@@H](OC)C(=O)[C@H](C)C[C@H](C)/C=C/C=C/C=C/1C` [everolimus] + O=c1cc(-c2cccc3c2Sc2ccccc2S3)oc(N2CCOCC2)c1 [KU55933] (first compound 0.1 µM, partner dose 5 µM), for which the cell count amounted to 76.5% with 501Mel, 74.1% with A101D, 67.5% in the assay on A2058 and 125% in the assay on A375.
Turning to `CC(=O)c1c(C)c2cnc(Nc3ccc(N4CCNCC4)cn3)nc2n(C2CCCC2)c1=O` [palbociclib] + O=C(O)c1ccc(-c2c[nH]c3ncc(-c4ccccc4)cc23)cc1C1CCCC1 [GSK650394] (first compound 0.2 µM, partner dose 0.8 µM), the figures for the cell count in the assay with A101D, in the assay on A2058 and in the assay on A375 were 62.2%, 121% and 77.4%, respectively.
The like results for `Nc1ncn([C@H]2C[C@H](O)[C@@H](CO)O2)c(=O)n1` [decitabine] + NC(=O)Nc1cc(-c2cccc(F)c2)sc1C(=O)N[C@H]1CCCNC1 [AZD7762] (first compound 0.5 µM, partner dose 0.1 µM) were, in that order, 62.8%, 42.2% and 55.6%.
Regarding `CO[C@H]1C[C@@H]2CC[C@@H](C)[C@@](O)(O2)C(=O)C(=O)N2CCCC[C@H]2C(=O)O[C@H]([C@H](C)C[C@@H]2CC[C@@H](OCCO)[C@H](OC)C2)CC(=O)[C@H](C)/C=C(\C)[C@@H](O)[C@@H](OC)C(=O)[C@H](C)C[C@H](C)/C=C/C=C/C=C/1C` [everolimus] + COc1cc2c(Oc3ccc4[nH]c(C)cc4c3F)ncnc2cc1OCCCN1CCCC1 [cediranib] (first compound 0.1 µM, partner dose 2 µM), the cell count in the assay on A101D was found to be 65.2%; in the assay with A2058 it was 57.9%; in the assay on A375, 92.5%.
On to `Nc1ncn([C@H]2C[C@H](O)[C@@H](CO)O2)c(=O)n1` [decitabine] + O=S(=O)(c1ccccc1)N(CC(F)(F)F)c1ccc(C(O)(C(F)(F)F)C(F)(F)F)cc1 [T0901317] (first compound 0.5 µM, partner dose 7 µM), for which the cell count in the assay with 501Mel was 67.3%; in the assay with A101D it was 72.2%; with A2058, 76.2%; in the assay on A375, 86.7%.
On the same counts, the results for `Nc1ncn([C@H]2C[C@H](O)[C@@H](CO)O2)c(=O)n1` [decitabine] + CCN(CC)CCCCNc1ncc2cc(-c3cc(OC)cc(OC)c3)c(NC(=O)NC(C)(C)C)nc2n1 [PD173074] (first compound 0.5 µM, partner dose 0.5 µM) are 71.5%, 76.4%, 64.6% and 95.5%.
Take `CC(=O)O[C@@]12CO[C@@H]1C[C@H](O)[C@@]1(C)C(=O)[C@H](O)C3=C(C)[C@@H](OC(=O)[C@H](O)[C@@H](NC(=O)OC(C)(C)C)c4ccccc4)C[C@@](O)([C@@H](OC(=O)c4ccccc4)[C@H]21)C3(C)C` [Docetaxel] + CNC(=O)c1cc(Oc2ccc(NC(=O)Nc3ccc(Cl)c(C(F)(F)F)c3)cc2)ccn1 [sorafenib] (first compound 0.0005 µM, partner dose 2 µM): the cell count in the assay on A101D was 58.8%; in the assay with A2058, 6.57%; with A375, 95.9%.
The like results for `Nc1ncn([C@H]2C[C@H](O)[C@@H](CO)O2)c(=O)n1` [decitabine] + C#Cc1cccc(Nc2ncnc3cc(OCCOC)c(OCCOC)cc23)c1 [erlotinib] (first compound 0.5 µM, partner dose 4 µM) were, in that order, 64.6%, 74.9% and 110%.
The like results for `Nc1ncn([C@H]2C[C@H](O)[C@@H](CO)O2)c(=O)n1` [decitabine] + Cn1nnc2c(C(N)=O)ncn2c1=O [temozolomide] (first compound 0.5 µM, partner dose 10 µM) were, in that order, 63%, 34.8% and 102%.

These data come from the supplement of paper PMC4604168 (melanoma cell lines).
